Assay results reported in the supplement of paper PMC10126150.
Sequences with one replicate were seen in a single cluster, so their values are uncertain.

Tested on: ATP
Assay: switch fluorescence ratio, 500 uM ATP over buffer (Cy3 cluster intensity, sum of 5 cycles each) (fold (ratio)); higher = stronger signal-on switching upon ATP binding; sequences stand for … in TCGTCGGCAGCGTCAGATGTGTATAAGAGACAGTTTTTTTTTTTTTTTTTTTTTTTTT…TC
Conditions: aptamer strand: ATP DNA aptamer (quencher-CACCTGGGGGAGTATTGCGGAGGAAGG + anchor), 100 nM annealed; ATP concentration: 500 uM; one replicate
In short: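 Clusters with intensities outside 100-1000 RFU were excluded. The remaining Cy3-labelled switching-strand clusters on a modified Illumina MiSeq flow-cell had been annealed to 100 nM quencher-labelled ATP aptamer and imaged in selection buffer, then after 15 min with 500 uM ATP at 22 °C, for five cycles separated by NaOH stripping and re-annealing. The fluorescence ratio, averaged per switch-domain sequence, is each cluster's summed target-cycle Cy3 intensity over its summed buffer-cycle Cy3 intensity.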
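Further: ATP exposure 15 min at 22 °C before imaging.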

| Sequence | switch fluorescence ratio |
| --- | --- |
| GGGTTGATAT | 0.973 |
| GGGTTGTTAA | 0.981 |
| GGGTTTAACA | 1.07 |
| GGTAAAACTT | 1.04 |
| GGTAAACGAC | 1.04 |
| GGTAACACCC | 0.994 |
| GGTAACCAGG | 1.21 |
| GGTAACCAGT | 0.971 |
| GGTAACTAC | 1.06 |
| GGTAAGTTTT | 1.01 |
| GGTAATCCTA | 0.998 |
| GGTAATCTGA | 0.991 |
| GGTAATGAGA | 1.11 |
| GGTACAGTAG | 0.999 |
| GGTACATGAG | 1.04 |
| GGTACCCTTA | 1.05 |
| GGTACGTAGA | 1.13 |
| GGTACTATGA | 1.01 |
| GGTAGAATGT | 0.989 |
| GGTAGACGAG | 1.03 |
| GGTAGACGCT | 0.999 |
| GGTAGACGTT | 1 |

| Sequence | switch fluorescence ratio |
| --- | --- |
| GGTAGATTAG | 0.961 |
| GGTAGGCGCA | 0.96 |
| GGTAGGGCTG | 1.02 |
| GGTAGTATAT | 0.987 |
| GGTATACCAC | 1 |
| GGTATATACG | 1 |
| GGTATCAGTC | 0.991 |
| GGTATCCAAT | 0.95 |
| GGTATGCATA | 1.04 |
| GGTATGCGGG | 0.966 |
| GGTATGGGG | 0.962 |
| GGTATGGTGT | 1.01 |
| GGTATGTCAA | 0.964 |
| GGTATTCCCA | 1.01 |
| GGTATTTAAG | 1.01 |
| GGTCAAACTG | 1.05 |
| GGTCAAATGT | 0.993 |
| GGTCAAGTAG | 1.03 |
| GGTCACATAT | 1.03 |
| GGTCACATGA | 1.05 |
| GGTCACCCGT | 1 |
| GGTCACGACG | 0.984 |

| Sequence | switch fluorescence ratio |
| --- | --- |
| GGTCACGGTT | 1.05 |
| GGTCAGAAT | 1 |
| GGTCATATT | 1.06 |
| GGTCATGAG | 0.995 |
| GGTCATGGCT | 0.972 |
| GGTCCAGAAA | 0.978 |
| GGTCCAGGGA | 0.852 |
| GGTCCCCTAA | 0.98 |
| GGTCCCTCTT | 1.03 |
| GGTCCTGAGG | 1.03 |
| GGTCGAACAC | 0.981 |
| GGTCGCACTG | 1 |
| GGTCGCCATG | 0.975 |
| GGTCGCGCAA | 1.08 |
| GGTCGCTTTC | 0.967 |
| GGTCGGTTCC | 1.06 |
| GGTCGTTCA | 0.989 |
| GGTCGTTCGA | 1 |
| GGTCGTTGTC | 0.97 |
| GGTCTAATTA | 0.953 |
| GGTCTATG | 0.985 |
| GGTCTATGTC | 0.963 |

| Sequence | switch fluorescence ratio |
| --- | --- |
| GGTCTGCGGT | 1.06 |
| GGTCTTGCAG | 0.968 |
| GGTCTTGTTC | 0.932 |
| GGTCTTTCGT | 1.02 |
| GGTGAAATCT | 1.05 |
| GGTGAACTCT | 1.02 |
| GGTGAAGGAA | 0.993 |
| GGTGAATCGA | 0.995 |
| GGTGACATGT | 1.01 |
| GGTGAGGGTT | 0.996 |
| GGTGAGTGTG | 0.999 |
| GGTGATAACA | 1 |
| GGTGATCGTT | 1.02 |
| GGTGATCTGT | 0.98 |
| GGTGATGCGT | 0.951 |
| GGTGATTTTC | 1.02 |
| GGTGCATAAG | 1.14 |
| GGTGCCAGGA | 1.12 |
| GGTGCTTCGT | 0.987 |
